From publication PMC10726135
This is one part of the list. At the low end of the ranking the order means little. The protein was read in a cell extract, so binding may be indirect.

These sequences were tested against T1, HNF4alpha2 (COS-7 nuclear extract) (UniProt P41235) (assay: protein-binding microarray). Conditions: COS-7 nuclear extract on double-stranded Agilent 4x180k PBM; binding buffer, salt, pH and temperature not given; high values mean tight binding; double strand, one strand shown; sequences stand for … in …GCCTAGGGAGATTAGAGTATCGGTCGA.
T1 sequence: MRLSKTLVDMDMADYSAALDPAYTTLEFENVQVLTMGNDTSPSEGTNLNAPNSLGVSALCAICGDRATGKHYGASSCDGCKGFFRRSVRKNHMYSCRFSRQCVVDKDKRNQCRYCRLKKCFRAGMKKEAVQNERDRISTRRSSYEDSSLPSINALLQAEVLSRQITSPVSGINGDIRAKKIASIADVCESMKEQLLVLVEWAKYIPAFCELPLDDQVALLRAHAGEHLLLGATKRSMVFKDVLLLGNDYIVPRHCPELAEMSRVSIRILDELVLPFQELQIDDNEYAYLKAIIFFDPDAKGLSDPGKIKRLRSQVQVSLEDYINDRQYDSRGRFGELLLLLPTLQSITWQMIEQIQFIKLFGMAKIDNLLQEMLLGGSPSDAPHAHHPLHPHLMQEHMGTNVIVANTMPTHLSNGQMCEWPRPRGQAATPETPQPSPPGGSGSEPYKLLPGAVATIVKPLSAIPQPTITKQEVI
In the case of GTTGAATGATGGCGAGTGTGCAATTAGAGC, the binding signal (log2 normalized intensity) is reported as 0.767. Sequence TTGTGTTTGTCTTAGGGGGTCTGGTTTCTA has a binding signal (log2 normalized intensity) of 1.58. GAGCAGTCTTGAGCGCAAATGATCAAAGGT showed a binding signal (log2 normalized intensity) of 0.645. CCCCTTCTGTTTCCAGAAATCTGACCTCTG showed a binding signal (log2 normalized intensity) of 4.34. AGCTGGAGGGGGACTGGAAGGGAGAGATAA showed a binding signal (log2 normalized intensity) of -1.19. For GTTGCATGCAACCTTTGTCCTCATTGAGCC, the binding signal (log2 normalized intensity) was 4.96. In the case of CCAGAAATCAACCTTTGATCGTTTGCATGC, the binding signal (log2 normalized intensity) is reported as 4.7. With TGCTCTCTCCAGGGGAGGGTGACCAGATTA the binding signal (log2 normalized intensity) was 0.281. GTCCAAAGGCAGTCTGGAAGTTGAATTCCT gave a binding signal (log2 normalized intensity) of -0.0664. GGGAGCAGTGGGGACGCCTTCCCCTGCCAC gave a binding signal (log2 normalized intensity) of -1.18. For GCTGGCCTGTCTCCTGGCCTATTGTTCTTC, the binding signal (log2 normalized intensity) was 1.45. Work on ATTATTAATTTACTGAAAAGTCTACCTTTG yielded a binding signal (log2 normalized intensity) of 0.892. CATTTGGGACAAAGTTCATCTGGGCTTTAG showed a binding signal (log2 normalized intensity) of 2.88. GGATTCCCAGATGGAGTGCTCTGAACCGTG showed a binding signal (log2 normalized intensity) of 0.22. TTTCTGGTTCTCCAGCTAGCAAACAGCATA was tested, and the binding signal (log2 normalized intensity) was -0.713. GCGACTTTAGGGGCCAAGGGAAAACTTCCC was tested, and the binding signal (log2 normalized intensity) was -1.19. TGACCTTTGTCCTGGCACAACTGGATGGTG gave a binding signal (log2 normalized intensity) of 5. TCCAATTAGGAGATCAGCCCGTGTCTGGGC gave a binding signal (log2 normalized intensity) of -0.819. Sequence CCTAGGTGCTGAAGATGCAACAGTGACCCA has a binding signal (log2 normalized intensity) of 2.44. Work on ATAGCGTCTCCTGGCCTCTGTGAAGTGGAG yielded a binding signal (log2 normalized intensity) of -1.05. CAGGCCTAACCCCTAACCCAGTGAATTCCT showed a binding signal (log2 normalized intensity) of 2.7. CTTAGGGTCAATGGGACATTGCATTCCACC gave a binding signal (log2 normalized intensity) of 0.845. With TGTCGTTTTCCCGGTTTGTTCCATGCCACA the binding signal (log2 normalized intensity) was 1.42. With CTGGATGTTTTGATGAACTTTCAAGATGAA the binding signal (log2 normalized intensity) was 1.1. Work on CTGTGTCATCTGAACTCTGACCAACGCCTC yielded a binding signal (log2 normalized intensity) of 2.73. Work on CTAGCTACTAGCCATTTCGGCACCTTCTAC yielded a binding signal (log2 normalized intensity) of -1.08. CAGCAGACACGGGCAGGTGAGAGGGCTCTG was tested, and the binding signal (log2 normalized intensity) was -1.02. In the case of TCAAGGACCTGCTCTGGGGCTACCTCAGGG, the binding signal (log2 normalized intensity) is reported as -1.17. In the case of ACCATGGATGCACTCCATTTACAGACCAAT, the binding signal (log2 normalized intensity) is reported as -1.1. ATGTAAGGCACTTTATCTAGATAAGTTTAT gave a binding signal (log2 normalized intensity) of -1.16. Sequence CATGGACAGCACTTAGGGTTCAAAGGTTGT has a binding signal (log2 normalized intensity) of 6.18. With TCAAGAAGGGCAGTTGACAGAGGACCAAGG the binding signal (log2 normalized intensity) was -1.04. GGTTCAGCTCCATCTGAACTCTTCATGGAC showed a binding signal (log2 normalized intensity) of 1.29. Work on TTTACCGAAATGTGGGTGAGGCTGTGATGT yielded a binding signal (log2 normalized intensity) of 1.89. Sequence CCTGTCACTCAATGCAGCAGCATTGGACCC has a binding signal (log2 normalized intensity) of 5.34. GCAGCTCCAATTAGGAGATCAGCCCGTGTC was tested, and the binding signal (log2 normalized intensity) was -1.24. For TGTTCATACTGCAGCTCTGCGTCTTACTAA, the binding signal (log2 normalized intensity) was -0.643. GCCGTGCATGCTTGGACTCTGAAGGAATGT gave a binding signal (log2 normalized intensity) of 1.82. TCAGATAGCTTTAGCCGGACTTTGTCCTTT was tested, and the binding signal (log2 normalized intensity) was 7.78. In the case of TAATTACAGAGCAAGTAGAGCTGCTTACAT, the binding signal (log2 normalized intensity) is reported as -1.07. Work on AGGAGTTTGTTCACCCACCAGAGGGAACGC yielded a binding signal (log2 normalized intensity) of -1.26. TGTTAGAGGGTGGTGGGTGAAGGATGGAAT was tested, and the binding signal (log2 normalized intensity) was 0.649. Sequence GTGGCTAGGACCTTTGAACCAGAGAAGATT has a binding signal (log2 normalized intensity) of 3.44. AGTATCTTAGCCAAAGAGAAGCCTAAGCAG was tested, and the binding signal (log2 normalized intensity) was -1.08. Work on GGTTCACCGCTCACTGCTCCAGCCACTCAT yielded a binding signal (log2 normalized intensity) of -0.809. Sequence TTTCTGTATAAGACAACCTTTGTTCACAGT has a binding signal (log2 normalized intensity) of 3.2. In the case of TGAGCTCTGATGGCGTATGCAGCAGGGCAG, the binding signal (log2 normalized intensity) is reported as -1.03. With TAGAGCTGTCCAGCAGACAATGGGAGACAT the binding signal (log2 normalized intensity) was -1.07. With ACTCACACACCCCAAAAGGTCAATCTGGAT the binding signal (log2 normalized intensity) was 3.48. AAAAGCCAAGGCATCTGGGGGCTTGTCAGA was tested, and the binding signal (log2 normalized intensity) was -1.05. Work on GATCAAAGAATTCCTAATAATACTGACTGA yielded a binding signal (log2 normalized intensity) of -1.25. GGCAGTAAGATAAGGAGGTAGAGTCTAAGG gave a binding signal (log2 normalized intensity) of -1.24. GCAACCACAGCCTCTGCATTTGCTCCCTGA gave a binding signal (log2 normalized intensity) of -1.14. For CTGGGCAGGCGCCGACTGCCAGGAGGGGAC, the binding signal (log2 normalized intensity) was -1.08. Sequence TTCATCCTCCCATACAGGATCGGTCACATT has a binding signal (log2 normalized intensity) of 2.07. Sequence ATCTTATCGCCTAGTACTCCTGCCCCTGTG has a binding signal (log2 normalized intensity) of 2.08. TAGGGCCCCCTGTGATTACTTCCACTCTTG gave a binding signal (log2 normalized intensity) of 0.57. In the case of AGTAGGTTTACTAAAGGAAGGGAGGTGAGT, the binding signal (log2 normalized intensity) is reported as 0.43. Work on AATAGGCCCTCCCAGCCTATTAACCCCAAA yielded a binding signal (log2 normalized intensity) of 5.15. TTCAGCAAATATTGAATGTGTTACACCTGT showed a binding signal (log2 normalized intensity) of 1.53. For ACTATCAGTGAAGAGCAAACAATCAGTGAA, the binding signal (log2 normalized intensity) was -1.04. CATATCTAGGATCACGCCATGAGTTGGGGA was tested, and the binding signal (log2 normalized intensity) was -1.1. Sequence AAATCCCCGCCTTTGACACAGGCGACCTTC has a binding signal (log2 normalized intensity) of 3.94. In the case of TCCGTGGTAACACACATTAGCTTCCCGGCT, the binding signal (log2 normalized intensity) is reported as -1.18. In the case of CACGGTAGCATGCTCTCTTGTCAAGACCGA, the binding signal (log2 normalized intensity) is reported as -1.12. CAGTTATCAGACAGAGGAATTCAGCAGGAT showed a binding signal (log2 normalized intensity) of -0.611. CATTTGAACCCAACCGTCCAGAGTCCACGT gave a binding signal (log2 normalized intensity) of 3.93. For TGACTAGATTTCTGTCTGTTTTCCCCTTCC, the binding signal (log2 normalized intensity) was 2.75. Sequence CCATGGTAAGAACTACAGTTGACCTTTGAA has a binding signal (log2 normalized intensity) of 7.38. CAACTGACATCTGGAAATGTTTGTAGGGAC was tested, and the binding signal (log2 normalized intensity) was 0.308. For GGCTGTGTCGGTATAAGTTCTACATTCCCA, the binding signal (log2 normalized intensity) was -0.443. Sequence CTCCAGGGCACTGCCCTTTGGAACCTGCCC has a binding signal (log2 normalized intensity) of 5.54.
